# According to article PMC5892938:
# The list shows a part of the results. At the low end of the ranking, values are background and their order means little.
# Molecular target: GST-SBP-SLBP (stem-loop binding protein) (UniProt Q14493)
# Experiment: targeted RNA Bind-n-Seq;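 further: DESeq read counts versus GST-SBP nonspecific binding control pulldown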
# Details: RBNS binding buffer: 25 mM Tris pH 7.5, 150 mM KCl, 3 mM MgCl2, 0.1% Tween, 0.5 mg/mL BSA, 1 mM DTT; 27 nM protein, 750 pM RNA pool; temperature not stated; high values mean tight binding
row,Sequence,binding signal (log2 fold change)
1,GGUCACGUCUCAAUCAACUCAUCGCCCAGGGAAAUCCCUGGUUAUCUCAACAGCUCGCAGUCAAG,0.0686
2,GGUCACGUCUCAAUCAACUCAUUUUCCAGGGAAAGCCCUGGCAUUCUCAACAGCUCGCAGUCAAG,0.168
3,GGUCACGUCUCAAUCAACUCAGUCCCCAGGGAAAUCCCUGGUUUAUUCAACAGCUCGCAGUCAAG,-0.0387
4,GGUCACGUCUCAAUCAACUCAUCGGAGGGGGGGAAAACCCCUUUACCCUCAUCAUCAACAGCUCGCAGUCAAG,0.0875
5,GGUCACGUCUCAAUCAACUCUUUUCCAGGAGUUUUCUCCUGCUAUCUCAACAGCUCGCAGUCAAG,0.00242
6,GGUCACGUCUCAAUCAACUCUAUUCCCAGGGAAACCCCUGGUUAUCUCAACAGCUCGCAGUCAAG,0.166
7,GGUCACGUCUCAAUCAACUCAAUUCCCAGGGAAAACCCUGGUAUAUUCAACAGCUCGCAGUCAAG,-0.113
8,GGUCACGUCUCAAUCAACUCAAUUUCAGGAGUUUCCUCCUGCUAUGUCAACAGCUCGCAGUCAAG,0.144
9,GGUCACGUCUCAAUCAACUCACAGGAGGGGGGGAAAACCCCUUUACCCUCAAUUUCAACAGCUCGCAGUCAAG,-0.207
10,GGUCACGUCUCAAUCAACUCAUCUUCAGGAGUUUGCUCCUGCUUUUUCAACAGCUCGCAGUCAAG,0.0533
11,GGUCACGUCUCAAUCAACUCAACUUCAGGAGUUUUCUCCUGCAUUUUCAACAGCUCGCAGUCAAG,-0.0175
12,GGUCACGUCUCAAUCAACUCAAUAGAGGGGGGGAAAACCCCUUUACCCUCCAUUUCAACAGCUCGCAGUCAAG,0.105
13,GGUCACGUCUCAAUCAACUCUUCUUCCAGGGAAACCCCUGGCAAUCUCAACAGCUCGCAGUCAAG,-0.0782
14,GGUCACGUCUCAAUCAACUCUACUCCCAGGGAAAUCCCUGGUUAAUUCAACAGCUCGCAGUCAAG,-0.245
15,GGUCACGUCUCAAUCAACUCCAAAGAGGGGGGGAAAACCCCUUUGCCCUCCAUUUCAACAGCUCGCAGUCAAG,-0.198
16,GGUCACGUCUCAAUCAACUCUAUAGAGGGGGGGAAAACCCCUUUACCCUCAUCAUCAACAGCUCGCAGUCAAG,0.306
17,GGUCACGUCUCAAUCAACUCAUUUCCAGGAGUUUGCUCCUGCUUACUCAACAGCUCGCAGUCAAG,0.129
18,GGUCACGUCUCAAUCAACUCAACUUCCAGGGAAACCCCUGGUAAUCUCAACAGCUCGCAGUCAAG,0.00358
19,GGUCACGUCUCAAUCAACUCACUAGAGGGGGGGAAAACCCCUUUACCCUCAUUAUCAACAGCUCGCAGUCAAG,0.408
20,GGUCACGUCUCAAUCAACUCUUCUUCCAGGGAAACCCCUGGUAUACUCAACAGCUCGCAGUCAAG,0.266
21,GGUCACGUCUCAAUCAACUCAUCUCCCAGGGAAAUCCCUGGUAAUCUCAACAGCUCGCAGUCAAG,0.0219
22,GGUCACGUCUCAAUCAACUCUUUCUCAGGAGUUUUCUCCUGUUUUUUCAACAGCUCGCAGUCAAG,-0.0612
23,GGUCACGUCUCAAUCAACUCAACGGAGGGGGGGAAAACCCCUUUACCCUCAAAAUCAACAGCUCGCAGUCAAG,-0.0322
24,GGUCACGUCUCAAUCAACUCUAUCGAGGGGGGGAAAACCCCUUUGCCCUCAUCUUCAACAGCUCGCAGUCAAG,-0.262

row,Sequence,binding signal (log2 fold change)
1,GGUCACGUCUCAAUCAACUCAACUUCCAGGGAAAUCCCUGGCAAUUUCAACAGCUCGCAGUCAAG,-0.11
2,GGUCACGUCUCAAUCAACUCAUCCCCAGGAGUUUACUCCUGUAGUCUCAACAGCUCGCAGUCAAG,0.138
3,GGUCACGUCUCAAUCAACUCCUACGAGGGGGGGAAAACCCCUUUACCCUCAAUCUCAACAGCUCGCAGUCAAG,-0.529
4,GGUCACGUCUCAAUCAACUCUAUUUCCAGGGAAAGCCCUGGCUAACUCAACAGCUCGCAGUCAAG,0.196
5,GGUCACGUCUCAAUCAACUCUUCCCCCAGGGAAAACCCUGGUUAUGUCAACAGCUCGCAGUCAAG,-0.0619
6,GGUCACGUCUCAAUCAACUCUACUUCAGGAGUUUUCUCCUGUUAACUCAACAGCUCGCAGUCAAG,0.0995
7,GGUCACGUCUCAAUCAACUCUAAAGAGGGGGGGAAAACCCCUUUACCCUCAUCUUCAACAGCUCGCAGUCAAG,-0.0523
8,GGUCACGUCUCAAUCAACUCAUUCUCAGGAGUUUACUCCUGCUUACUCAACAGCUCGCAGUCAAG,0.00153
9,GGUCACGUCUCAAUCAACUCUUUUCCAGGAGUUUUCUCCUGCUAACUCAACAGCUCGCAGUCAAG,0.063
10,GGUCACGUCUCAAUCAACUCAACUUCCAGGGAAAGCCCUGGUAUUCUCAACAGCUCGCAGUCAAG,0.107
11,GGUCACGUCUCAAUCAACUCAACUUCCAGGGAAACCCCUGGCAUUUUCAACAGCUCGCAGUCAAG,0.0233
12,GGUCACGUCUCAAUCAACUCCCUAGAGGGGGGGAAAACCCCUUUGCCCUCCGUAUCAACAGCUCGCAGUCAAG,0.168
13,GGUCACGUCUCAAUCAACUCCAUGGAGGGGGGGAAAACCCCUUUACCCUCAACCUCAACAGCUCGCAGUCAAG,0.122
14,GGUCACGUCUCAAUCAACUCUUUUCCCAGGGAAAGCCCUGGCAUUCUCAACAGCUCGCAGUCAAG,0.204
15,GGUCACGUCUCAAUCAACUCAUUAGAGGGGGGGAAAACCCCUUUACCCUCGUUUUCAACAGCUCGCAGUCAAG,0.199
16,GGUCACGUCUCAAUCAACUCAUUUCCAGGAGUUUACUCCUGCUUAGUCAACAGCUCGCAGUCAAG,0.158
17,GGUCACGUCUCAAUCAACUCGCAAGAGGGGGGGAAAACCCCUUUACCCUCAAAUUCAACAGCUCGCAGUCAAG,0.308
18,GGUCACGUCUCAAUCAACUCAUUCCCCAGGGAAAACCCUGGCUUAUUCAACAGCUCGCAGUCAAG,0.07
19,GGUCACGUCUCAAUCAACUCUUCCCCCAGGGAAAACCCUGGCAUACUCAACAGCUCGCAGUCAAG,-0.0584
20,GGUCACGUCUCAAUCAACUCAUCCCCAGGAGUUUCCUCCUGCUAACUCAACAGCUCGCAGUCAAG,0.194
21,GGUCACGUCUCAAUCAACUCAUCUCCAGGAGUUUCCUCCUGUAAUUUCAACAGCUCGCAGUCAAG,0.018
22,GGUCACGUCUCAAUCAACUCUUUUUCCAGGGAAACCCCUGGCUAUGUCAACAGCUCGCAGUCAAG,-0.0917
23,GGUCACGUCUCAAUCAACUCCUCAGAGGGGGGGAAAACCCCUUUACCCUCGUCUUCAACAGCUCGCAGUCAAG,0.0137
